# Reference: PubChem BioAssay AID651820 (National Center for Advancing Translational Sciences (NCATS), 2012)
# Values joined by “and” are separate entries in the source; they are usually repeats but may differ in a detail not shown here. Equal entries are not always repeated. Screen size: about 340,000 compounds; about 12,000 (3.5%) were called active. The inconclusive results got no clear call from the source; some entries with a clear call stand among them for comparison. Calls come from the whole dose curve; as a rule, active = well fitted inhibition curve with a large enough effect; inconclusive = small, poorly fitted or top-dose-only effect, or another doubt; inactive = no such curve, though single readings can be large or run the other way. Potencies of inconclusive entries are doubtful fits and often do not repeat.
# Test: qHTS Assay for Inhibitors of Hepatitis C Virus (HCV)
# Details: Huh7.5.1 HCVcc-Cre (HCVcc is cell-culture hepatitis C virus) infection, luciferase reporter, 44 h; activity change, negative = inhibition: at 41.8 µM (top of the series) unless noted
# How it was run: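 Cells seeded at 1,000/well and cultured 4 h, then compounds added followed by HCVcc-Cre virus (~0.5 moi). After 44 h further culture, luciferase substrate was added, plates held 15 min at room temperature, and luminescence read for 15 sec.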
# % is set by controls: 0 for no effect and ±100 for the full control effect; potency is the fitted concentration of half-maximal effect; tags give direction and shape of the fitted curve.
Structure (SMILES),Potency,"activity change, negative = inhibition"
Cc1ccc(-c2cn(S(=O)(=O)c3cccc4nsnc34)nc2N)cc1,"inconclusive: 31.6 µM [inhibitor, single point]",–
COc1cc(OC)cc(C(=O)NNC(=O)CCc2nc3ccccc3c(=O)[nH]2)c1,inactive,–
CS(=O)(=O)c1ccc(-c2cccc(NC(=O)c3ccc(Br)o3)c2)nn1,"inconclusive: 22.4 µM [inhibitor, single point]",–
COC(=O)c1cc(C(=O)OC)n(Cc2ccc(Cl)cc2Cl)n1,"inconclusive: 12.6 µM [inhibitor, single point]",–
CCCCNC(=O)c1onc(CSc2nc3ccccc3[nH]2)c1C(=O)NCCCC,–,inactive: -7.89% [at 8.37 µM]
CCOc1cc(C(=O)OCC(=O)c2c[nH]c3ccccc23)ccc1OCC(=O)N1CCOCC1,"inconclusive: 14.1 µM [inhibitor, single point]",–
CCCC(=O)Nc1ccc(C(=O)Nc2ccc([N+](=O)[O-])cc2OC)cc1,"inconclusive: 1.78 µM [inhibitor, full curve]",–
Cc1ccc(-c2c[n+](Cc3ccc(Cl)cc3)c3n2CCC3)cc1,inactive,–
Cc1ccc(Cn2ccc(NC(=O)c3noc4c3CCCC4)n2)cc1,"inconclusive: 31.6 µM [inhibitor, single point]",–
Cc1cccnc1NC(=O)CSc1nnc(CNC(=O)c2cccc([N+](=O)[O-])c2)n1C,inactive,–
Cc1ccc(S(=O)(=O)NCC2COc3ccccc3O2)cc1 (stereo not given),inactive,–
COc1cccc(C(=O)O/N=C(\N)c2ccc([N+](=O)[O-])cc2)c1OC,"inconclusive: 35.5 µM [inhibitor, single point]",–
O=C(COc1nc2ccccc2nc1N1CCOCC1)N1CCc2ccccc21,"inconclusive: 10 µM [inhibitor, partial curve, poor fit]",–
CCCCCCCn1c(=O)c(C(=O)Nc2cnccn2)c(O)c2ccccc21,–,inconclusive: -53.6% [inhibitor]
O=C1CN=C(c2ccccc2)c2ccccc2N1Cc1ccc(C(F)(F)F)cc1,"inconclusive: 22.4 µM [inhibitor, single point]",–
CN(C)CC/C=C1\c2ccccc2Sc2cc(F)c(Cl)cc21,"inconclusive: 31.6 µM [inhibitor, partial curve, poor fit]",–
CC1CCN(S(=O)(=O)c2ccc(NC(=O)C3CC(=O)N(c4ccccc4)C3)cc2)CC1 (stereo not given),"inconclusive: 11.2 µM [inhibitor, single point]",–
O=C(NCc1cccs1)C1CCN(S(=O)(=O)c2ccc3c(c2)OCCO3)CC1,"inconclusive: 5.01 µM [inhibitor, single point]",–
N#Cc1c(-c2ccccc2)cc(-c2ccccc2)nc1SCc1nnc(-c2ccccc2)o1,"inconclusive: 11.2 µM [inhibitor, partial curve, poor fit]",–
Cc1csc(NC(=O)c2cc3ccccc3o2)n1,"inconclusive: 25.1 µM [inhibitor, partial curve, poor fit]",–
O=C(CCCCn1c(=O)c2ccccc2n(Cc2ccccc2F)c1=O)NC1CCN(Cc2ccccc2)CC1,inactive,–
COc1ccc(C2C(C(=O)N3CCCC3)c3cc(OC)c(OC)cc3C(=O)N2C)cc1OC (stereo not given),inactive,–
CCOC(=O)c1c(NC(=O)CSC2=NN3CCCC(=O)N=C3S2)sc2c1CCCCC2,active: 8.91 µM,–
CC1(C)Cc2c(sc(/N=C/N3CCCCCC3)c2C#N)C(C)(C)N1,"inconclusive: 31.6 µM [inhibitor, single point]",–

Structure (SMILES),Potency,"activity change, negative = inhibition"
CC(=O)Nc1cccc(NC(=O)c2cc(-c3cccnc3)nc3ccc(Br)cc23)c1,active: 14.1 µM,–
O=C(Cn1nnc(-c2ccccc2)n1)NCc1ccco1,inactive,–
CC(Sc1nnc(-c2cccs2)n1N)C(=O)NCC1CCCO1 (stereo not given),inactive,–
CC(C)(C)c1ccc(CSc2ccc(S(=O)(=O)N3CCOCC3)cn2)cc1,active: 10 µM,–
COc1cc(/C=C/C(O)=C/C(=O)/C=C/c2ccc(O)cc2)ccc1O,"inconclusive: 11.2 µM [inhibitor, single point]",–
CCCc1cc(NCc2ccccn2)n2c(nc3ccccc32)c1C#N,active: 12.6 µM,–
Cc1cc(C)cc(NC(=O)c2nnn(Cc3cc(C)ccc3C)c2N)c1,"inconclusive: 5.62 µM [inhibitor, partial curve]",–
O=C(Nc1ccccn1)c1ccc2ccccc2n1,inactive,–
CN(C)c1ccc(C(=O)N2CCCC(CCC(=O)N3CCN(c4ccccn4)CC3)C2)cc1 (stereo not given),"inconclusive: 31.6 µM [inhibitor, single point]",–
COC(=O)C(C)Sc1ncnc2c1nnn2-c1ccc(F)cc1 (stereo not given),"inconclusive: 11.2 µM [inhibitor, partial curve]",–
O=C(C[n+]1ccc2c(c1)nnn2-c1ccccc1)c1ccc(Cl)cc1,"inconclusive: 3.16 µM [inhibitor, full curve]",–
O=C(Nc1cc(Cl)ccn1)C1CCN(S(=O)(=O)c2cccs2)CC1,"inconclusive: 6.31 µM [inhibitor, partial curve]",–
Cc1[nH]n(-c2ccccc2)c(=O)c1C(C[N+](=O)[O-])c1ccc(Cl)cc1 (stereo not given),inactive,–
O=C(CCCCCn1c(=S)[nH]c2ccc(N3CCOCC3)cc2c1=O)NCc1ccc2c(c1)OCO2,"inconclusive: 8.91 µM [inhibitor, partial curve, poor fit]",–
CN1/C(=C\C=Nc2cc(S(=O)(=O)N3CCOCC3)ccc2N2CCOCC2)C(C)(C)c2ccccc21,inactive,–
COc1ccc(OCCNC(=S)Nc2cccc3ccccc23)cc1,"inconclusive: 5.62 µM [inhibitor, full curve]",–
N#Cc1ccc(S(=O)(=O)NC2CCCCNC2=O)cc1 (stereo not given),inactive,–
O=C(Nc1nc(-c2ccccn2)cs1)Nc1ccc(F)cc1F,"inconclusive: 20 µM [inhibitor, single point]",–
CCOc1cccc2sc(N(CCCN(C)C)C(=O)c3ccc(S(=O)(=O)N(C)CC4CCCO4)cc3)nc12 (stereo not given),inactive,–
COC(=O)c1ccc(NC(=O)COc2ccc(S(=O)(=O)N3CCCCC3)cc2)cc1,"inconclusive: 1 µM [inhibitor, full curve, poor fit]",–
CCCCn1c(=O)[nH]c(=O)c2c1nc(-c1ccccc1F)n2Cc1ccccc1,"inconclusive: 31.6 µM [inhibitor, single point]",–
CC1CC(C)CN(CCCSc2ccccc2)C1 (stereo not given),inactive,–
COCCCNC(=O)c1ccc(N(C)S(=O)(=O)c2ccc(OC)cc2)cc1,inactive,–
CCN1CCN(c2ncc(C(=O)Nc3c(F)cc(F)cc3Br)c3ccccc23)CC1,"inconclusive: 14.1 µM [inhibitor, partial curve] and inconclusive: 14.1 µM [inhibitor, single point]",–

Structure (SMILES),Potency,"activity change, negative = inhibition"
COc1cc(/C=C(\C#N)C(=O)Nc2ccc3c(c2)OCCO3)ccc1O,"inconclusive: 22.4 µM [inhibitor, single point]",–
COc1cc2c3c(c1)/C(=C1/SC(=S)NC1=O)C(=O)N3C(C)(C)C=C2C,active: 25.1 µM,–
O=C(Nc1ccccn1)c1sc2cc([N+](=O)[O-])ccc2c1Cl,inactive,–
CCCCn1c(/C=N/Nc2nc3ccccc3[nH]2)nc2ccccc21,"inconclusive: 5.62 µM [inhibitor, full curve]",–
Cn1c(=O)c2c(nc(SCC(=O)NCc3ccc4c(c3)OCO4)n2Cc2ccc(Cl)cc2)n(C)c1=O,active: 2.51 µM,–
COCc1c(C(=O)NCCOc2ccc(Cl)cc2)oc2ccccc12,"inconclusive: 31.6 µM [inhibitor, single point]",–
CCC(COC(=O)c1ccccc1)Oc1cc(NCc2ccccc2)c2ncn(C(C)C)c2c1 (stereo not given),"inconclusive: 7.08 µM [inhibitor, partial curve]",–
COc1ccc(OC)c(-n2c(SCC(=O)Nc3cccc(S(N)(=O)=O)c3)nc3ccccc3c2=O)c1,"inconclusive: 6.31 µM [inhibitor, partial curve]",–
Cc1ccc2c(c1)[C@H]1[C@H](CO2)[C@H](c2ccccc2)[C@]2(C)C(=O)N(Cc3ccc(Cl)cc3)CC(=O)N12,"inconclusive: 31.6 µM [inhibitor, single point]",–
CC(C)(C)c1ccc(S(=O)(=O)N2CCN(C(=O)C3=COCCO3)CC2)cc1,inactive,–
CCOc1ccc(CCNC(=O)COC(=O)/C=C/c2cccc(OC)c2)cc1OCC,inactive,–
O=C(NC1CCCCC1)N1CCC(c2nc3ccc(Cl)cc3[nH]2)CC1,inactive,–
CC(C)/C=C(/C(=O)c1ccc(Cl)cc1Cl)n1cncn1,inactive,–
CCN1C(=O)[C@H]2[C@H]3CN=C(SCc4ccc(C)cc4)N3[C@@](Cc3ccccc3)(C(=O)OC)[C@H]2C1=O,active: 0.316 µM,–
CCCCCOc1ccc(C(C)(O)C(CN2CCOCC2)c2ccccc2)cc1 (stereo not given),"inconclusive: 31.6 µM [inhibitor, single point]",–
CCOc1c(Cl)cc(/C=C/C(=O)N(CC)CC(=O)NCc2cccs2)cc1OC,inactive,–
Clc1cccc(Nc2nc(N3CCOCC3)nc(N3CCOCC3)n2)c1,"inconclusive: 10 µM [inhibitor, single point]",–
CCCCn1c(CN2CCN(C(=O)c3ccco3)CC2)nc2c1c(=O)n(C)c(=O)n2C,inactive,–
O=C1CCNCCN1[C@H](CO)c1ccccc1,"inconclusive: 35.5 µM [inhibitor, partial curve, poor fit]",–
CCc1noc(C)c1C(=O)N(CC(C)C)c1c(N)n(Cc2ccccc2)c(=O)[nH]c1=O,inactive,–
O=Cc1ccccc1OCCCOc1cccc2cccnc12,inactive,–
COc1ccccc1CNC(=O)C1CC(c2c(Cl)cccc2Cl)=NO1 (stereo not given),"inconclusive: 22.4 µM [inhibitor, single point]",–
